Experimental data published in publication PMC4336329 (PLoS ONE, 2015).
Out of some 310,000 compounds screened, about 14,000 (4.5%) showed an effect of 50% or more. The effect is printed as a negative number. Some of the results follow.

Each molecule was assayed against human ether-à-go-go-related gene (hERG) potassium channel (human, UniProt Q12809) (assay: primary screen, population patch clamp on CHO cells stably expressing hERG).
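Also: peak tail current of the secondary pulse compared with the same well before compound.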

human ether-à-go-go-related gene (hERG) potassium channel, sequence (Q12809 whole entry, looked up): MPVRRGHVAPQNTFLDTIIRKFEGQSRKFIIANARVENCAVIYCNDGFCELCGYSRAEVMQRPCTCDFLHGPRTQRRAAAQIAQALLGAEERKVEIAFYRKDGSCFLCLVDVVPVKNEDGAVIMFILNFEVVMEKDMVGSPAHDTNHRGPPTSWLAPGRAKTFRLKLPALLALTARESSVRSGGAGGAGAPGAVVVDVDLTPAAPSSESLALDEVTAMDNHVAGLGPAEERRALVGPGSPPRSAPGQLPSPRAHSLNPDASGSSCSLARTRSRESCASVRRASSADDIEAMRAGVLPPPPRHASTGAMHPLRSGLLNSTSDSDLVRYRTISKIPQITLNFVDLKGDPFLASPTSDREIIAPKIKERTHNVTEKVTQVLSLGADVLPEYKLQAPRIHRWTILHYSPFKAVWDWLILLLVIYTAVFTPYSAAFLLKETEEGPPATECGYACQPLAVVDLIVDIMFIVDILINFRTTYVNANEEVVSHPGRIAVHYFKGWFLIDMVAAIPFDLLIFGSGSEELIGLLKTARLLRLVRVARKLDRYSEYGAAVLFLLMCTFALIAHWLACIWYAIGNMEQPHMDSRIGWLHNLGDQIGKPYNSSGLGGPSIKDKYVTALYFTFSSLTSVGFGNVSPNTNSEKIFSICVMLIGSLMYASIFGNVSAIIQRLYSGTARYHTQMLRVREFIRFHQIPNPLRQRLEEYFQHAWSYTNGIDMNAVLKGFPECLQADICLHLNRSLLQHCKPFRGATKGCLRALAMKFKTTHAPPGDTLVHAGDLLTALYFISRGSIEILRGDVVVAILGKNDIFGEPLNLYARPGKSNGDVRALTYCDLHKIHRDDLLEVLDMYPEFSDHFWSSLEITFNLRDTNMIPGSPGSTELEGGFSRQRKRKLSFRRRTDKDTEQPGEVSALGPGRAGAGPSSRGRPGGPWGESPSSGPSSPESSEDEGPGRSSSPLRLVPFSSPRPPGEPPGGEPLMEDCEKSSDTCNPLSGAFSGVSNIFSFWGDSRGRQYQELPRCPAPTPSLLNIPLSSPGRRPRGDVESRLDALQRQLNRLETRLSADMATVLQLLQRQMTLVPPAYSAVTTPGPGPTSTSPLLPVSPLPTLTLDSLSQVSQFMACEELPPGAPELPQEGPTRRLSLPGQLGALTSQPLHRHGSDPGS

| Structure (SMILES) | hERG current change (%, negative = inhibition) at 10uM |
| --- | --- |
| Cc1cccc(C(=O)Nc2nnc(S(=O)(=O)N3CCOCC3)s2)c1 | 11.2% |
| COc1ccc(CNC(=O)CN(C)Cc2ccc(C(C)(C)C)cc2)cc1.O=C(O)C(=O)O | -4.44% |
| COc1ccccc1NC(=O)Cn1ncc2c1-c1ccccc1OC2 | -5.92% |
| O=C(Cn1c(C(F)(F)F)nc2ccccc21)OCC(=O)c1c[nH]c2ccccc12 | 11.2% |
| Cn1nc(-c2ccccc2)cc1NS(=O)(=O)c1ccc(C#N)cc1 | 11.4% |
| COc1ccccc1/C=C/C(=O)NCC(=O)N/N=C/c1cc(Br)ccc1OC | -3.8% |
| OCC1(CCc2ccccc2)CCCN(CCCc2ccccc2)C1 (stereo not shown) | -70.9% |
| CCc1cc(C(=O)N2CCCC(CNS(=O)(=O)c3cccs3)C2)n(C)n1 (stereo not shown) | 22.7% |
| CCn1c(CC(=O)Nc2ccc(F)cc2)nnc1SCC(=O)NC1CCCC1 | -0.544% |
| CCOC(=O)Cn1c(N2CCOCC2)nc2c1c(=O)[nH]c(=O)n2C | 9.66% |
| Cc1ccc(Cl)cc1NC(=O)C1CCCCC1C(=O)O (stereo not shown) | -8% |
| S=C(NC1CC2CCC1C2)N1CCN(c2cccc(Cl)c2)CC1 (stereo not shown) | 11.3% |
| O=C1c2ccccc2C(=O)N1c1nc(-c2cccs2)cs1 | -2.75% |
| CCOc1ccc(-n2c(SCC(=O)Nc3ccc(C(=O)O)cc3)nc3ccccc3c2=O)cc1 | 12.6% |
| CCOC(=O)C1(Cc2cccc(OC)c2)CCCN(S(=O)(=O)CC)C1 (stereo not shown) | -0.0135% |
| Cc1cccc(C(=O)NNC(=O)/C=C/C(=O)O)c1 | 22.7% |
| C=CCNC(=O)c1onc(CSc2ccc(OC)cc2)c1C(=O)O | 11.4% |
| S=c1[nH]nc(C2(c3ccccc3)CCCC2)o1 | -33.1% |
| CC(=O)N/N=C/c1ccc(OCCOc2ccc(Br)cc2)cc1 | -3.01% |
| Cn1ncc2c(Nc3ccc(Br)cc3)nc(Nc3ccc(Br)cc3)nc21 | 13.7% |
| CCOC(=O)C1=C(C)Nc2nc(SC)nn2C1c1ccc(C(=O)OC)cc1 (stereo not shown) | 5.26% |
| CCOC(=O)c1ccc(/C=N/O)[n+](Cc2ccccc2)c1.[Br-] | 10.6% |

| Structure (SMILES) | hERG current change (%, negative = inhibition) at 10uM |
| --- | --- |
| Cc1noc(NS(=O)(=O)c2ccc(NC(=O)c3nn(-c4ccc(F)cc4)ccc3=O)cc2)c1C | -8.79% |
| O=C(NNC(=S)NC(=O)c1cccnc1)c1ccc(Cl)cc1 | 18.8% |
| Cc1cc2n(n1)SC(Nc1ccc(F)cc1)N2 (stereo not shown) | -10.6% |
| CC[C@H](C)/C=C(C)/C=C/C1=CC2=CC(=O)[C@]3(C)OC(=O)[C@@H](C(C)=O)[C@@H]3C2=CO1 | 4.65% |
| Cc1csc(SCC(=O)NC(=O)NC2CCCC2)n1 | 25.2% |
| O=C(/C=C/c1ccc(Cl)cc1Cl)N(Cc1ccc(Cl)cc1)C1CCS(=O)(=O)C1 (stereo not shown) | 11.1% |
| COc1cc(NC(=O)C(=O)NCCN(C)C)c(OC)cc1Cl | 8.41% |
| O=C1C2CCCN2C(c2ccccc2F)N1c1cccc(Cl)c1 (stereo not shown) | 3.69% |
| CCN(CC)CCN1C(=O)C(=O)/C(=C(/O)c2ccc(F)cc2)C1c1ccncc1 (stereo not shown) | 2.58% |
| O=C(NCCCCNC(=O)c1ccc(Cl)s1)c1ccc(Cl)s1 | 12.9% |
| O=C(c1ccc(Cl)cc1)N1N=CCC1(O)c1ccc(Cl)cc1 (stereo not shown) | 15.7% |
| COc1ccc(N2CCN(C(=O)CCCOc3cc(=O)n(C)c4ccccc34)CC2)cc1 | -21.3% |
| Cc1ccccc1CCNC(=O)c1cc(C2CC2)nc2c1cnn2C(C)C | -15.8% |
| S=C(Nc1ccc(Oc2ccccc2)cc1)N1CCOCC1 | -38% |
| O=C1CCC(=O)N1c1nc2nc(-c3ccccc3)cc(-c3ccccc3)n2n1 | -40.6% |
| O=C(CCSc1ccccc1)N1CCN(c2ccccc2F)CC1 | -16.6% |
| CCN1C(=O)CSC1=Nc1ccc(Cl)c(Cl)c1 | 3.36% |
| CCOC(=O)N1CCN(C(=O)CSc2nc3c([nH]c4ccccc43)c(=O)n2C)CC1 | -2.23% |
| Oc1cccc(/C=N/c2c(-c3ccco3)nc3ccccn23)c1 | 6.9% |
| COC(=O)c1nonc1NCn1nnc2ccccc21 | 1.65% |
| CC(C)(C)OC(=O)N1Cc2ccccc2C[C@H]1C(=O)NC1CCCC1 | 10.4% |
| CCCCc1nnc(NC(=O)c2ccc(S(=O)(=O)N3CCOCC3)cc2)s1 | 2.84% |

| Structure (SMILES) | hERG current change (%, negative = inhibition) at 10uM |
| --- | --- |
| CCCNC(=O)Cn1c(=O)oc2cc(S(=O)(=O)N3CC(C)CC(C)C3)ccc21 (stereo not shown) | -5.73% |
| Cc1ccc(NC(=O)c2cc(N3C(=O)C4CC=CCC4C3=O)ccc2N2CCCCC2)cc1 (stereo not shown) | 1.46% |
| Cc1ccc(C)c(NC(=S)N(Cc2ccco2)C(C)c2cccs2)c1 (stereo not shown) | -1.31% |
| COc1ccc(CCN2CC(C(=O)NCCN3CCOC3=O)CCC2=O)cc1 (stereo not shown) | 13.6% |
| Cc1ccc(SCC(=O)NCCSCc2ccccc2)cc1 | -21.8% |
| Cc1ccc(CNC(=O)CCSCc2cccc(F)c2)cc1 | -0.165% |
| CCCCCNc1nc2ccccc2nc1NS(=O)(=O)c1cccs1 | -14.1% |
| CCC(C)[C@H](NC(=O)N1CCN(c2cccc(C(F)(F)F)c2)CC1)C(=O)OC (stereo partly shown) | 4.78% |
| CC(=O)Nc1nc(CC(=O)c2ccccc2)cs1 | 8.68% |
| O=C(Nc1ccccc1C(=O)NCc1ccc(Cl)cc1)c1ccco1 | -29.1% |
| Cc1ccc(CC2C(=O)N(C)C(=O)N(C)C2=O)s1 | -6.64% |
| COc1ccc(NC(=O)c2ccc(-n3cncn3)c([N+](=O)[O-])c2)cc1OC | -2.52% |
| O=C(NCc1ccccc1)c1c[nH]c2ccc(F)cc2c1=O | 9.32% |
| C=C(C)Cn1c(Sc2nnc(C)s2)nc2c1c(=O)[nH]c(=O)n2C | 12.9% |
| O=C1CSC(c2ccc([N+](=O)[O-])cc2)N1c1ccccc1F (stereo not shown) | 0.496% |
| COc1cccc(CN2CCCN(S(=O)(=O)c3ccc(Br)cc3)CC2)c1 | -58.6% |
| Cc1ccc(NC(=O)c2cc([N+](=O)[O-])ccc2Cl)c(O)c1 | -4.12% |
| Cc1ccc2c(c1)COc1c3ccc(C(=O)N[C@@H](CO)C(C)C)cc3nn1-2 | -0.828% |
| S=C(Nc1ccccc1Cl)N(Cc1ccccc1)Cc1cccnc1 | -6.03% |
| O=C(c1cc2ncc(Br)cn2n1)N1CCCCC1 | -3.2% |
| C=CCn1c(SCC(=O)N(CCOC)c2c(N)n(CC(C)C)c(=O)[nH]c2=O)nc2ccccc21 | 7.1% |
| Cc1ccc(Sc2ccc(NC(=O)c3ccc(S(C)(=O)=O)cc3Cl)cc2)cc1 | 2.09% |

| Structure (SMILES) | hERG current change (%, negative = inhibition) at 10uM |
| --- | --- |
| O=C(NCCCCO)c1ccc2c3c(cccc13)CC2 | 7.52% |
| Cn1c(=O)c2[nH]c(SCC(=O)c3ccc(F)cc3)nc2n(C)c1=O | 13.5% |
| COC(=O)C1=C(c2ccc(C(C)=O)cc2)C[C@@H]2CC[C@H]1N2C(=O)N1CCCCC1 | -16.9% |
| Cc1ccc(NC(=O)c2c(C)nn(-c3ccccc3)c2Cl)c(C)c1 | 19.6% |
| O=C(Nc1nc2ccccc2s1)c1cc(-c2ccccc2)nn1-c1ccccc1 | 7.89% |
| O=C(NCc1ccccc1F)C(=O)NCC1CCCN1S(=O)(=O)c1cccs1 (stereo not shown) | -8.75% |
| CCOC(=O)c1c(C)c(C(=O)NCc2ccc3c(c2)OCO3)c(C)n1CC | 7.11% |
| CCOC(=O)CNC(=O)c1c(C)nn(-c2ccccc2)c1Cl | 7.02% |
| COc1ccccc1C(=O)NC(CCSC)C(=O)NC1CCCCCC1 (stereo not shown) | 23% |
| O=C(Nc1ccncc1)c1cccc(S(=O)(=O)N2CCc3ccccc32)c1 | -41.1% |
| Cc1ccc2ncnc(Oc3ncccc3NC(=O)C(C)(C)C)c2c1 | 13.8% |
| Cc1ccc(S(=O)(=O)N2CCN(C(=O)CNC(=O)c3ccc(Br)o3)CC2)cc1 | -45.4% |
| O=Cc1ccc2oc3nc4n(c(=O)c3c(=O)c2c1)CCCS4 | -35.7% |
| O=C(NOCc1ccccc1)c1ccc([N+](=O)[O-])cc1 | 9.16% |
| N#CC1(NC(=O)COC(=O)Cn2[nH]c(=O)c3ccccc3c2=O)CCCCC1 | 2.13% |
| N#Cc1ccccc1Cn1cc(C(=O)c2ccco2)c2ccccc21 | -27.8% |
| COc1ccc(NC(=O)C2(N(C(=O)Cn3nnnc3N)c3ccc(OC)cc3)CCCCC2)cc1 | 24.6% |
| COc1ccc(OC)c(-n2c(O)cnc2Nc2nc(C)cc(C)n2)c1 | -3.88% |
| CCOc1ccc(CCNC(=O)C2CCN(c3nnc(-n4cccc4)s3)CC2)cc1 | -0.834% |
| CCn1cc(CCC(=O)NCc2ccccc2OC)c2ccccc21 | 4.45% |
| O=C(COC(=O)c1nc(Cl)ccc1Cl)NCCc1ccccc1 | 2.6% |
| CCCN=C1CC(C)(C)CC(=O)/C1=C(/O)CCC | 15.8% |
